# In the supplement of paper PMC8728848:
# This is one part of the list.
# B1: Ecp6 (Cladosporium fulvum), B3VBK9 (protein)
# chain: MQSMILFAAALMGAAVNGFVLPRTDDPDCETKATDCGSTSNIKYTVVKGDTLTSIAKKFKSGICNIVSVNKLANPNLIELGATLIIPENCSNPDNKSCVSTPAEPTETCVPGLPGSYTIVSGDTLTNISQDFNITLDSLIAANTQIENPDAIDVGQIITVPVCPSSQCEAVGTYNIVAGDLFVDLAATYHTTIGQIKALNNNVNPSKLKVGQQIILPQDCKNVTTAVA
# What was measured:
# Experiment in all cases: glycan array binding signal (z-score within array); higher = stronger binding
# Settings in all cases: glycan notation: IUPAC condensed, linker removed
# [1] = target: GlcNAc6S(b1-3)Gal(b1-4)GlcNAc
# In short: (§1)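 Columns mapping to the same glycan were averaged after glycan names were converted to IUPAC-condensed notation. The data come from 3228 arrays in the Consortium for Functional Glycomics database, limited to those with an available protein sequence. Binding is reported as a within-array Z-score averaged across arrays of one protein sequence and across linkers.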
# Kdn(a2-3)Gal(b1-3)GalNAc = target: Kdn(a2-3)Gal(b1-3)GalNAc
# In short: as §1
# Kdn(a2-3)Gal(b1-3)GlcNAc = target: Kdn(a2-3)Gal(b1-3)GlcNAc
# In short: as §1
# Kdn(a2-3)Gal(b1-4)Glc = target: Kdn(a2-3)Gal(b1-4)Glc
# In short: as §1
# Kdn(a2-3)Gal(b1-4)GlcNAc = target: Kdn(a2-3)Gal(b1-4)GlcNAc
# In short: as §1
# [2] = target: Kdn(a2-3)Gal(b1-4)[Fuc(a1-3)]GlcNAc
# In short: as §1
# Kdn(a2-6)Gal(b1-4)GlcNAc = target: Kdn(a2-6)Gal(b1-4)GlcNAc
# In short: as §1
# [3] = target: Man(a1-2)Man(a1-2)Man(a1-3)Man
# In short: as §1
# [4] = target: Man(a1-2)Man(a1-2)Man(a1-6)[Man(a1-3)]Man
# In short: as §1
# Man(a1-2)Man(a1-3)Man = target: Man(a1-2)Man(a1-3)Man
# In short: as §1
# [5] = target: Man(a1-2)Man(a1-3)[Man(a1-2)Man(a1-6)]Man
# In short: as §1
# [6] = target: Man(a1-2)Man(a1-3)[Man(a1-2)Man(a1-6)]Man(a1-6)[Man(a1-2)Man(a1-2)Man(a1-3)]Man
# In short: as §1
# [7] = target: Man(a1-2)Man(a1-3)[Man(a1-2)Man(a1-6)]Man(a1-6)[Man(a1-2)Man(a1-2)Man(a1-3)]Man(b1-4)GlcNAc(b1-4)GlcNAc
# In short: as §1
# [8] = target: Man(a1-2)Man(a1-3)[Man(a1-6)]Man(a1-6)[Man(a1-2)Man(a1-3)]Man(b1-4)GlcNAc(b1-4)GlcNAc
# In short: as §1
# [9] = target: Man(a1-2)Man(a1-6)[Man(a1-3)]Man(a1-6)[Man(a1-2)Man(a1-2)Man(a1-3)]Man
# In short: as §1
# [10] = target: Man(a1-2)Man(a1-6)[Man(a1-3)]Man(a1-6)[Man(a1-2)Man(a1-2)Man(a1-3)]Man(b1-4)GlcNAc(b1-4)GlcNAc
# In short: as §1
# Man(a1-3)[Man(a1-6)]Man = target: Man(a1-3)[Man(a1-6)]Man
# In short: as §1
# [11] = target: Man(a1-3)[Man(a1-6)]Man(a1-6)[Man(a1-2)Man(a1-3)]Man(b1-4)GlcNAc(b1-4)GlcNAc
# In short: as §1
# [12] = target: Man(a1-3)[Man(a1-6)]Man(a1-6)[Man(a1-3)]Man
# In short: as §1
# [13] = target: Man(a1-3)[Man(a1-6)]Man(a1-6)[Man(a1-3)]Man(b1-4)GlcNAc(b1-4)GlcNAc
# In short: as §1
# [14] = target: Man(a1-3)[Man(a1-6)]Man(b1-4)GlcNAc(b1-4)GlcNAc
# In short: as §1
# Man(a1-6)Man = target: Man(a1-6)Man
# In short: as §1
# Man(b1-4)GlcNAc = target: Man(b1-4)GlcNAc
# In short: as §1
# Neu5Ac(a2-3)Gal = target: Neu5Ac(a2-3)Gal
# In short: as §1
# [15] = target: Neu5Ac(a2-3)Gal(b1-3)GalNAc
# In short: as §1
# [16] = target: Neu5Ac(a2-3)Gal(b1-3)GalNAc(b1-3)Gal(a1-4)Gal(b1-4)Glc
# In short: as §1
# [17] = target: Neu5Ac(a2-3)Gal(b1-3)GalNAc(b1-4)[Neu5Ac(a2-3)]Gal(b1-4)Glc
# In short: as §1
# [18] = target: Neu5Ac(a2-3)Gal(b1-3)GalNAc6S
# In short: as §1
# [19] = target: Neu5Ac(a2-3)Gal(b1-3)GlcNAc
# In short: as §1
# [20] = target: Neu5Ac(a2-3)Gal(b1-3)GlcNAc(b1-2)Man(a1-3)[Neu5Ac(a2-3)Gal(b1-3)GlcNAc(b1-2)Man(a1-6)]Man(b1-4)GlcNAc(b1-4)GlcNAc
# In short: as §1
# [21] = target: Neu5Ac(a2-3)Gal(b1-3)GlcNAc(b1-3)Gal(b1-3)GlcNAc
# In short: as §1
# [22] = target: Neu5Ac(a2-3)Gal(b1-3)GlcNAc(b1-3)Gal(b1-4)GlcNAc
# In short: as §1
# [23] = target: Neu5Ac(a2-3)Gal(b1-3)GlcNAc(b1-3)GalNAc
# In short: as §1
# [24] = target: Neu5Ac(a2-3)Gal(b1-3)GlcNAc6S
# In short: as §1
# [25] = target: Neu5Ac(a2-3)Gal(b1-3)[Fuc(a1-4)]GlcNAc
# In short: as §1
# [26] = target: Neu5Ac(a2-3)Gal(b1-3)[Fuc(a1-4)]GlcNAc(b1-3)Gal(b1-3)[Fuc(a1-4)]GlcNAc
# In short: as §1
# [27] = target: Neu5Ac(a2-3)Gal(b1-3)[Fuc(a1-4)]GlcNAc(b1-3)Gal(b1-4)[Fuc(a1-3)]GlcNAc
# In short: as §1
# [28] = target: Neu5Ac(a2-3)Gal(b1-3)[Neu5Ac(a2-3)Gal(b1-4)]GlcNAc
# In short: as §1
# [29] = target: Neu5Ac(a2-3)Gal(b1-3)[Neu5Ac(a2-6)]GalNAc
# In short: as §1
# Neu5Ac(a2-3)Gal(b1-4)Glc = target: Neu5Ac(a2-3)Gal(b1-4)Glc
# In short: as §1
# [30] = target: Neu5Ac(a2-3)Gal(b1-4)GlcNAc
# In short: as §1
# [31] = target: Neu5Ac(a2-3)Gal(b1-4)GlcNAc(b1-2)Man(a1-3)[GlcNAc(b1-2)Man(b1-4)GlcNAc(b1-2)Man(a1-6)]Man(b1-4)GlcNAc(b1-4)GlcNAc
# In short: as §1
# [32] = target: Neu5Ac(a2-3)Gal(b1-4)GlcNAc(b1-2)Man(a1-3)[Neu5Ac(a2-6)Gal(b1-4)GlcNAc(b1-2)Man(a1-6)]Man(b1-4)GlcNAc(b1-4)GlcNAc
# In short: as §1
# [33] = target: Neu5Ac(a2-3)Gal(b1-4)GlcNAc(b1-3)Gal(b1-3)GlcNAc
# In short: as §1
# [34] = target: Neu5Ac(a2-3)Gal(b1-4)GlcNAc(b1-3)Gal(b1-4)GlcNAc
# In short: as §1
# [35] = target: Neu5Ac(a2-3)Gal(b1-4)GlcNAc(b1-3)Gal(b1-4)GlcNAc(b1-3)Gal(b1-4)GlcNAc
# In short: as §1
# [36] = target: Neu5Ac(a2-3)Gal(b1-4)GlcNAc(b1-3)Gal(b1-4)[Fuc(a1-3)]GlcNAc
# In short: as §1
# [37] = target: Neu5Ac(a2-3)Gal(b1-4)GlcNAc(b1-3)GalNAc
# In short: as §1
# [38] = target: Neu5Ac(a2-3)Gal(b1-4)GlcNAc(b1-6)[Gal(b1-3)]GalNAc
# In short: as §1
# [39] = target: Neu5Ac(a2-3)Gal(b1-4)GlcNAc(b1-6)[Neu5Ac(a2-3)Gal(b1-3)]GalNAc
# In short: as §1
# [40] = target: Neu5Ac(a2-3)Gal(b1-4)GlcNAc6S
# In short: as §1
# [41] = target: Neu5Ac(a2-3)Gal(b1-4)[Fuc(a1-3)]GlcNAc
# In short: as §1
# [42] = target: Neu5Ac(a2-3)Gal(b1-4)[Fuc(a1-3)]GlcNAc(b1-3)Gal
# In short: as §1
# [43] = target: Neu5Ac(a2-3)Gal(b1-4)[Fuc(a1-3)]GlcNAc(b1-3)Gal(b1-4)GlcNAc
# In short: as §1
# [44] = target: Neu5Ac(a2-3)Gal(b1-4)[Fuc(a1-3)]GlcNAc(b1-3)Gal(b1-4)[Fuc(a1-3)]GlcNAc(b1-3)Gal(b1-4)[Fuc(a1-3)]GlcNAc
# In short: as §1
binder,measurement,setting,value
B1,glycan array binding signal (z-score),[1],-0.097
same,glycan array binding signal (z-score),Kdn(a2-3)Gal(b1-3)GalNAc,-0.069
same,glycan array binding signal (z-score),Kdn(a2-3)Gal(b1-3)GlcNAc,-0.096
same,glycan array binding signal (z-score),Kdn(a2-3)Gal(b1-4)Glc,-0.076
same,glycan array binding signal (z-score),Kdn(a2-3)Gal(b1-4)GlcNAc,-0.07
same,glycan array binding signal (z-score),[2],-0.069
same,glycan array binding signal (z-score),Kdn(a2-6)Gal(b1-4)GlcNAc,-0.079
same,glycan array binding signal (z-score),[3],-0.067
same,glycan array binding signal (z-score),[4],-0.105
same,glycan array binding signal (z-score),Man(a1-2)Man(a1-3)Man,-0.058
same,glycan array binding signal (z-score),[5],-0.083
same,glycan array binding signal (z-score),[6],-0.096
same,glycan array binding signal (z-score),[7],-0.09
same,glycan array binding signal (z-score),[8],-0.07
same,glycan array binding signal (z-score),[9],-0.085
same,glycan array binding signal (z-score),[10],-0.11
same,glycan array binding signal (z-score),Man(a1-3)[Man(a1-6)]Man,-0.085
same,glycan array binding signal (z-score),[11],-0.059
same,glycan array binding signal (z-score),[12],-0.103
same,glycan array binding signal (z-score),[13],-0.108
same,glycan array binding signal (z-score),[14],-0.085
same,glycan array binding signal (z-score),Man(a1-6)Man,-0.091
same,glycan array binding signal (z-score),Man(b1-4)GlcNAc,-0.085
same,glycan array binding signal (z-score),Neu5Ac(a2-3)Gal,-0.077
same,glycan array binding signal (z-score),[15],-0.099
same,glycan array binding signal (z-score),[16],-0.057
same,glycan array binding signal (z-score),[17],-0.083
same,glycan array binding signal (z-score),[18],-0.082
same,glycan array binding signal (z-score),[19],-0.095
same,glycan array binding signal (z-score),[20],-0.105
same,glycan array binding signal (z-score),[21],-0.095
same,glycan array binding signal (z-score),[22],-0.097
same,glycan array binding signal (z-score),[23],-0.121
same,glycan array binding signal (z-score),[24],-0.094
same,glycan array binding signal (z-score),[25],-0.09
same,glycan array binding signal (z-score),[26],-0.066
same,glycan array binding signal (z-score),[27],-0.067
same,glycan array binding signal (z-score),[28],-0.091
same,glycan array binding signal (z-score),[29],-0.083
same,glycan array binding signal (z-score),Neu5Ac(a2-3)Gal(b1-4)Glc,-0.097
same,glycan array binding signal (z-score),[30],-0.087
same,glycan array binding signal (z-score),[31],-0.086
same,glycan array binding signal (z-score),[32],-0.079
same,glycan array binding signal (z-score),[33],-0.102
same,glycan array binding signal (z-score),[34],-0.073
same,glycan array binding signal (z-score),[35],-0.099
same,glycan array binding signal (z-score),[36],-0.108
same,glycan array binding signal (z-score),[37],-0.091
same,glycan array binding signal (z-score),[38],-0.119
same,glycan array binding signal (z-score),[39],-0.092
same,glycan array binding signal (z-score),[40],-0.104
same,glycan array binding signal (z-score),[41],-0.099
same,glycan array binding signal (z-score),[42],-0.105
same,glycan array binding signal (z-score),[43],-0.081
same,glycan array binding signal (z-score),[44],-0.097
